Assay results: US20170023576A1, “NOTCH3 ANTIBODIES AND USES THEREOF” (ONCOMED PHARMACEUTICALS, INC., priority 2014, published 2017)

Target: T1, extracellular domain of human NOTCH3 (Homo sapiens, UniProt Q9UM47)
T1 construct: IHC assays using HEK-293 cells transiently transfected with NOTCH1, NOTCH2, NOTCH3, or NOTCH4 ECD constructs; expressed in transfected cells; host or cells: HEK-293, transiently transfected
Assay: Screening of anti-NOTCH3 antibodies in IHC assays (FFPE)
Format: binding
Text: Immunohistochemistry (IHC) is the localization of antigens in tissue sections by the use of specific antibodies through antigen-antibody interactions that are then visualized and detected. However, finding an antibody that works well in an IHC assay, particularly on formalin-fixed paraffin embedded (FFPE) material, can be a difficult endeavor. Common problems include, but are not limited to, strong background staining and weak antigen staining. Many antibodies that work very well in fluorescence-activated cell sorting (FACS) assays, ELISAs, or Western blot analyses have undesirable characteristics in an IHC assay. Therefore an extensive screening project was undertaken to identify an antibody that specifically bound the extracellular domain of human NOTCH3 that would be appropriate for use in IHC assays. In addition to evaluating commercially available anti-NOTCH3 antibodies, murine anti-NOTCH3 monoclonal antibodies were produced and evaluated.
Antibodies were generated against recombinant human NOTCH3 protein amino acids 350-580 (NOTCH3 EGFs 9-14). Mice (n=3) were immunized with NOTCH3 protein using standard techniques. […]
A NOTCH3 immunohistochemistry (IHC) assay was developed and optimized using the murine monoclonal antibody 122M23 identified in Example 3. […] Specific binding was detected using an ADVANCE kit (Dako, Carpinteria Calif.) including diaminobenzidine (DAB) for 5 minutes. […]

T1 sequence (Q9UM47 40-1643 limits assumed): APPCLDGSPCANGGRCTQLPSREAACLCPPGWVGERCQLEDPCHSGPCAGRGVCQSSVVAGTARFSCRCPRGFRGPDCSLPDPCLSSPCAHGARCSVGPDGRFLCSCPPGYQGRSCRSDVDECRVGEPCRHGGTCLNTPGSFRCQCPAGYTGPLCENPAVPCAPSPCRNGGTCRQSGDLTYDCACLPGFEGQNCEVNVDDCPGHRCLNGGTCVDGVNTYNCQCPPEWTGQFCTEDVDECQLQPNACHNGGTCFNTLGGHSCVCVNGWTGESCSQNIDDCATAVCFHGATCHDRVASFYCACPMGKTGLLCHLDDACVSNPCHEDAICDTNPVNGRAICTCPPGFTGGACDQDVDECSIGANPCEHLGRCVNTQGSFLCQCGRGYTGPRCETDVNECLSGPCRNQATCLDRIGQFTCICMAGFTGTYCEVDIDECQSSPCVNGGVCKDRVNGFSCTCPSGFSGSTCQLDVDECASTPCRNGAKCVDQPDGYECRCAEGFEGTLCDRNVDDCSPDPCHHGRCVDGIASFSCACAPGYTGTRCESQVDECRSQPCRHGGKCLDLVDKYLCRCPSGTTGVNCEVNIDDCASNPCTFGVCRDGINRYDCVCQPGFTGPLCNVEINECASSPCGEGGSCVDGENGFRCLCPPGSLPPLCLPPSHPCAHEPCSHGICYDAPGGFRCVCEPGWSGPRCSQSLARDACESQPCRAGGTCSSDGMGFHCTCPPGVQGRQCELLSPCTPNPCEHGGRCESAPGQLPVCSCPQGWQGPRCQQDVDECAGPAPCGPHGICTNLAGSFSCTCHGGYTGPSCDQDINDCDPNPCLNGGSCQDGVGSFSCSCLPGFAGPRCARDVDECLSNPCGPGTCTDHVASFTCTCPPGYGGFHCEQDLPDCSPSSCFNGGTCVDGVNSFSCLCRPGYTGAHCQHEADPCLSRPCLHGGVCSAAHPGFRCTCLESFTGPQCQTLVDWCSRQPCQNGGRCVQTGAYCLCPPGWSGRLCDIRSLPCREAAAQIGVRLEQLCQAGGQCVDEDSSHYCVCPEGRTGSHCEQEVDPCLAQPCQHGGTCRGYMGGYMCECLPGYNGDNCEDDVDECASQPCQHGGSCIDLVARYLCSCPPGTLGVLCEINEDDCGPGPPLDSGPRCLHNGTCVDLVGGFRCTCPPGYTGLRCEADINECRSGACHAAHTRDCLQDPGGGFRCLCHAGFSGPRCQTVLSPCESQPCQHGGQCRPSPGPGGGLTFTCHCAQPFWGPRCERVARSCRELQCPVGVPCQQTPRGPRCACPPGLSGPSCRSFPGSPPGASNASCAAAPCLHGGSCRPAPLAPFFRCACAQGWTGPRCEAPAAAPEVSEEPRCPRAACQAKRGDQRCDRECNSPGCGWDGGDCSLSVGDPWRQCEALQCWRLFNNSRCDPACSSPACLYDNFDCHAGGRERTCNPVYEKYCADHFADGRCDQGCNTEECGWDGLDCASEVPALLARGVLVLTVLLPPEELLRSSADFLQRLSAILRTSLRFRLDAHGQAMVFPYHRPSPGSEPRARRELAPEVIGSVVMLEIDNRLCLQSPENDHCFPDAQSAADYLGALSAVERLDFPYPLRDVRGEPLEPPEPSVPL

B1: 122M23: murine monoclonal anti-NOTCH3 antibody; VH SEQ ID NO:34, VL SEQ ID NO:38; hybridoma ATCC PTA-121154 (antibody, V domains shown)
VH: QVQLQQSGAELARPGASVKMSCKASGYTFTKYTIHWVAQKPGQGLEWIGYINPSNDYTNYNQTFKDKATLTADKSSTTAYMQLISLTSADSTVFYCARGTTPYSLDYWGQGTSVTVSS
VL: DIVLTQSPASLAVSLGQRATISCRASESVDNYGMSFMNWFQQKPGQSPKLLIYAASNQGSGVPARFSGSGSGTNFSLNIHPMEEDDTAVYFCLQSKEVPYTFGGGTKLEIKR
modifications: 122M23 Heavy chain variable region without predicted signal sequence; 122M23 Light chain variable region without predicted signal sequence
notes: murine monoclonal anti-NOTCH3 antibody; hybridoma ATCC PTA-121154
Which results are given for B1?
staining in the IHC assay against the desired criteria (NOTCH3 ECD specific, membrane localized, minimal background) (FFPE pellets of HEK-293 cells transfected with NOTCH1-4 ECD constructs, positive and negative control tissues): met all of the desired criteria; binding specificity (IHC reagent antibody): specific for the extracellular domain of human NOTCH3
